Experimental findings from the RNAGym collection of RNA variant scans (doi:10.1073/pnas.2313332121) are described below.

This sample is rich in variants without activity.

The labels stand for the following.
B1: TPR 5TU (parent)
chain: GGAUCUUCUCGAUCUAACAAAAAAGACAAAUCUGCCACAAAGCUUGAGAGCAUCUUCGGAUGCAGAGGCGGCAGCCUUCGGUGGCGCGAUAGCGCCAACGUUCUCAACUAUGACACGCAAAACGCGUGCUCCGUUGAAUGGAGUUUAUCAUG

The variants in this series derive from B1. The series is described as follows: polymerase ribozyme fitness, log enrichment relative to wild type (log ratio); higher = more active; in vitro selection for triplet polymerase activity. In a few lines:
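In triplicate, a single round of in vitro selection was run on each mutant library, PCR-built and transcribed, covering one subunit of a heterodimeric triplet polymerase ribozyme. Frozen incubation at −7 °C followed annealing with a biotinylated primer, partner subunit and triplets, and extended constructs were then gel-excised, streptavidin-captured and taken through RT-PCR. Fitness is the logarithm of genotype enrichment over wild-type enrichment, from inverse-variance-weighted replicate averages of Illumina-sequenced inputs and outputs. […] only genotypes with ≥10 input reads and ≥1 read per output were kept.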
For the variant A16U A64U C85G G88A C116G G128U U139G U144G, the “polymerase ribozyme fitness (log ratio)” value is no more than -4.2.

As for A16U C18G C32G G58C C87A A120G, the “polymerase ribozyme fitness (log ratio)” value was no more than -4.2.

With A16U G126U C131A, the “polymerase ribozyme fitness (log ratio)” value was no more than -4.2.

Turning to A16U C38U A91U C103A, the “polymerase ribozyme fitness (log ratio)” value was no more than -4.2.

Take A16C U56A C103A G124U G143C: the “polymerase ribozyme fitness (log ratio)” value was no more than -4.2.

Turning to A16G G25U A41C G46A C69U G133C, the “polymerase ribozyme fitness (log ratio)” value was no more than -4.2.

For A16G C38U U82A C96G, the “polymerase ribozyme fitness (log ratio)” value was -1.

A16U A24U C35U G92A U127A: the “polymerase ribozyme fitness (log ratio)” value is no more than -4.2.

Take A16U A26G U56A G68C G84U A91U C93G C132G: the “polymerase ribozyme fitness (log ratio)” value is no more than -4.2.

As to A17C A28U G59A A60C C85U C93A C99U, the “polymerase ribozyme fitness (log ratio)” value was no more than -4.2.

For A16G A40C G42C A52G C54U C96G U109G, the “polymerase ribozyme fitness (log ratio)” value was no more than -4.2.

As to A16U A29U A91C A98G C99A U148A, the “polymerase ribozyme fitness (log ratio)” value was no more than -4.2.

With A16G A26U C35A C51G U61A C87G A120U C129G, the “polymerase ribozyme fitness (log ratio)” value was no more than -4.2.

On to A16C U45G C114U, for which the “polymerase ribozyme fitness (log ratio)” value was -3.74.

In the case of A16U A28C G94U C96U A110C, the “polymerase ribozyme fitness (log ratio)” value was no more than -4.2.

In the case of A16U A21U C27A U44G A60G G74A U78C A142C, the “polymerase ribozyme fitness (log ratio)” value was no more than -4.2.

Regarding A16U U45A G50A U148G A150C, the “polymerase ribozyme fitness (log ratio)” value is no more than -4.2.

For A16U G74C A91C G141C, the “polymerase ribozyme fitness (log ratio)” value is no more than -4.2.

On to A16G A19C A22G C54A C85U A110U G136A, for which the “polymerase ribozyme fitness (log ratio)” value was no more than -4.2.

For the variant A16G A28C C38U G46U C75G A89U C96G A97U A138G, the “polymerase ribozyme fitness (log ratio)” value was no more than -4.2.

For the variant A16G U31C C51U U53G C125A G140C, the “polymerase ribozyme fitness (log ratio)” value was no more than -4.2.

As for A16C U56A U78A C93U C116G A137C, the “polymerase ribozyme fitness (log ratio)” value was no more than -4.2.

Regarding A17C A21U G48A G84A U90C C99U, the “polymerase ribozyme fitness (log ratio)” value was no more than -4.2.

As to A16U G50C G58A G65A C125A G136A A142U, the “polymerase ribozyme fitness (log ratio)” value is no more than -4.2.

Consider A16G G25C U55A C76A C87A C116G U139G U148A, for which the “polymerase ribozyme fitness (log ratio)” value was no more than -4.2.

For the variant A16U U56G G84A U102A G141U, the “polymerase ribozyme fitness (log ratio)” value is -3.81.

In the case of A16U A52G G58A U61A C76G C79G U90C, the “polymerase ribozyme fitness (log ratio)” value is no more than -4.2.

As to A16G A49U C131U, the “polymerase ribozyme fitness (log ratio)” value is -1.5.

In the case of A16U A29G G92A, the “polymerase ribozyme fitness (log ratio)” value is no more than -4.2.

Consider A16G C27U G42C G58C C75U C95U A138U, for which the “polymerase ribozyme fitness (log ratio)” value is no more than -4.2.

On to A16U A28C G58C G83U C108A, for which the “polymerase ribozyme fitness (log ratio)” value was no more than -4.2.

As for A16G C54U G92C C96A G112U, the “polymerase ribozyme fitness (log ratio)” value was no more than -4.2.

With A16U A91C A106G, the “polymerase ribozyme fitness (log ratio)” value was no more than -4.2.

For A16U C18U A20C A29U C38U G94A C105G, the “polymerase ribozyme fitness (log ratio)” value was no more than -4.2.

As for A16G A40C A119C U127C, the “polymerase ribozyme fitness (log ratio)” value was -3.55.

With A16G A40C C51G C76U C93G A97G G126A, the “polymerase ribozyme fitness (log ratio)” value is no more than -4.2.

For A16G A30U U44A G81A C95U C125G, the “polymerase ribozyme fitness (log ratio)” value is no more than -4.2.

Consider A16U A41G C51U G74C C95U C103U C118U G133A, for which the “polymerase ribozyme fitness (log ratio)” value was no more than -4.2.

Take A16G U33A C54U G58A G81U C95G A98U: the “polymerase ribozyme fitness (log ratio)” value is no more than -4.2.

For A16G G46A C54A U144A, the “polymerase ribozyme fitness (log ratio)” value is no more than -4.2.

Consider A16G C27U C35U A49C C93G G136A U148C, for which the “polymerase ribozyme fitness (log ratio)” value was no more than -4.2.

In the case of A16G G34C U53G C87A C93A C105U, the “polymerase ribozyme fitness (log ratio)” value is no more than -4.2.

Take A16U A29C A52G G68A U101C G136U: the “polymerase ribozyme fitness (log ratio)” value was no more than -4.2.

Take A16G A23G A41C A52C C131U C132G U151G: the “polymerase ribozyme fitness (log ratio)” value was no more than -4.2.

Turning to A16G A60G A98U A107U U111C G126U, the “polymerase ribozyme fitness (log ratio)” value was no more than -4.2.

Take A16U A26C A30C C43U A47C A49C C103A C129U: the “polymerase ribozyme fitness (log ratio)” value is no more than -4.2.

With A16G A17G C57U A64C A91U C95U C118G G124A G126A G133C, the “polymerase ribozyme fitness (log ratio)” value was no more than -4.2.

A16G U33G U55A C95U: the “polymerase ribozyme fitness (log ratio)” value was -3.89.

On to A16G C32U U33G A66C U101G U109G A121C U148C C149G, for which the “polymerase ribozyme fitness (log ratio)” value was no more than -4.2.

As to A16C G94A, the “polymerase ribozyme fitness (log ratio)” value is -1.78.

In the case of A16G G25C C57U G74A C108G C118A G143C, the “polymerase ribozyme fitness (log ratio)” value was no more than -4.2.

Turning to A16G A17C A19G A30G G88A C93G, the “polymerase ribozyme fitness (log ratio)” value is no more than -4.2.

Regarding A16U A49C C69G G92C C99U A107G G136A G141U, the “polymerase ribozyme fitness (log ratio)” value was no more than -4.2.

For the variant A16U C43A G50C U56A C69G A73G G94A C108G, the “polymerase ribozyme fitness (log ratio)” value was no more than -4.2.

Turning to A16G C69U C85U C131G A142U, the “polymerase ribozyme fitness (log ratio)” value is no more than -4.2.

Turning to A16C G94U A107G C116A C132U A142G, the “polymerase ribozyme fitness (log ratio)” value is no more than -4.2.

Turning to A16U A24C G68U G84A C116G G124A C129A G143U, the “polymerase ribozyme fitness (log ratio)” value is no more than -4.2.

With A16U A17U G48U U104G G124A C131G, the “polymerase ribozyme fitness (log ratio)” value is -4.15.

With A17C A21U G48A A66C G84A, the “polymerase ribozyme fitness (log ratio)” value is no more than -4.2.

With A16U U44A G71C C96G A106U U127C G133U G141C U148C, the “polymerase ribozyme fitness (log ratio)” value is no more than -4.2.

For the variant A16U A52C C85A C87U U139G, the “polymerase ribozyme fitness (log ratio)” value is no more than -4.2.

Consider A16G A22U C43G C69A C108G, for which the “polymerase ribozyme fitness (log ratio)” value is no more than -4.2.

For A16U C35U C93U G136U U139A, the “polymerase ribozyme fitness (log ratio)” value is no more than -4.2.

With A16G A29U U45A C54G C87G C125G, the “polymerase ribozyme fitness (log ratio)” value was no more than -4.2.

With A16U A21G A30U G48C, the “polymerase ribozyme fitness (log ratio)” value was no more than -4.2.

With A16G A24U G88A C95U A122U U130C, the “polymerase ribozyme fitness (log ratio)” value was no more than -4.2.

With A16C G25C, the “polymerase ribozyme fitness (log ratio)” value is -2.46.

Take A17C A19U G58A A97G U102G A119G: the “polymerase ribozyme fitness (log ratio)” value was -3.63.

Take A17C A40C G74C A113U A115G U134G: the “polymerase ribozyme fitness (log ratio)” value was no more than -4.2.

A16G A24U A52C C85A C95U: the “polymerase ribozyme fitness (log ratio)” value was no more than -4.2.

Turning to A16G A97G U144G, the “polymerase ribozyme fitness (log ratio)” value was -0.0952.

A16G G80C G81A A97G U102C G136C C149U: the “polymerase ribozyme fitness (log ratio)” value is no more than -4.2.

Turning to A16U C27U C95A U148G, the “polymerase ribozyme fitness (log ratio)” value was no more than -4.2.

For A16G A26C C32U A47C U53A A91G C96G, the “polymerase ribozyme fitness (log ratio)” value is no more than -4.2.

With A16U A17U U61G G84U C103G G136U A137U U145G, the “polymerase ribozyme fitness (log ratio)” value is no more than -4.2.

Regarding A16G G80A, the “polymerase ribozyme fitness (log ratio)” value is -0.775.

As for A16G A26U U31G A52C G94A, the “polymerase ribozyme fitness (log ratio)” value is no more than -4.2.

With A17C A23U A29U A39C U53A C79G G94A C116U, the “polymerase ribozyme fitness (log ratio)” value is no more than -4.2.

In the case of A16U A28C U31C G83A U101C, the “polymerase ribozyme fitness (log ratio)” value is no more than -4.2.

For A17C A22G C69G U78G A150G, the “polymerase ribozyme fitness (log ratio)” value was no more than -4.2.

Regarding A16U A66U G124A, the “polymerase ribozyme fitness (log ratio)” value is no more than -4.2.

For A16G A21G A30U A73U A91G G141A U145C, the “polymerase ribozyme fitness (log ratio)” value is no more than -4.2.

Take A16G C27A C69U C72U C87G G133C: the “polymerase ribozyme fitness (log ratio)” value is no more than -4.2.
